{"source": "patent US20190062402A1", "about": "(SHANGHAI KANDA BIOTECHNOLOGY, published 2019)", "molecular_target": "T1, recombinant human BMP-2 protein (human, UniProt P12643 283-396)", "T1 construct": "Bought reagent; also called bone morphogenetic protein-2", "T1 sequence (looked up)": "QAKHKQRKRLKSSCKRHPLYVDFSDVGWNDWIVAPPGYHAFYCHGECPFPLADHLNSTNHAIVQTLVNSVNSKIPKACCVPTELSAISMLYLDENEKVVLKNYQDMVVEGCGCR", "experiment": "ELISA, BMP-2 coated on plate, ACVR1-Fc titrated, anti-human IgG Fc-AP detection", "description": "Dilutions of the fusion protein (3× serial dilution) were prepared in binding solution of TBST with 1% BSA. The blocking solution was decanted, and 50 μl/well of the 3× serial dilution of the fusion protein was added. The plate was placed in thermostat at 37° C. for 1 hr. After the fusion protein solution was decanted, the ELISA plate was washed three times with TBST, and then 50 μl/well of the secondary antibody (alkaline phosphatase-conjugated goat-anti-human IgG Fc antibody, Jackson ImmuneResearch) was added to react in thremostat at 37° C. for 1 hr. The developing antibody was removed, and to the ELISA plate, 200 μl/well TBST wash solution was added. The plate was then placed on a horizontal rotator at 100 rpm for 5 minutes, after which, the wash solution was decanted. The process was repeated five times. To the ELISA plate, 50 μl/well antibody developing solution (PNPP) was added. The ELISA plate was placed in thermostat at 37° C., and was read at 405 nm.", "data": [{"binder": "ACVR1-Fc fusion protein (Fc fusion, The signal peptide is left out here; also called ACVR1-Fc protein; the fusion protein) MEDEKPKVNPKLYMCVCEGLSCGNEDHCEGQQCFSSLSINDGFHVYQKGCFQVYEQGKMTCKTPPSPGQAVECCQGDWCNRNITAQLPTKGKSFPGTQNFHLE[here human IgG1 Fc without letters]", "values": [{"measurement": "EC50", "result": 420, "unit": "nM"}]}]}
